Measurements from PubChem BioAssay AID1240 (Sanford-Burnham Center for Chemical Genomics, 2008).
Among all 50,000 compounds or so, about 800 (1.6%) showed an effect of 50% or more. This is one part of the list.

Target: Bcl-2-like protein 10 (Homo sapiens) (UniProt Q9HD36)
Assay: Phenotype converters, Bcl-B/TR3 peptide binding displacement, primary biochemical FP (AID 1240);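 note: 0% = Bcl-B with tracer peptide and DMSO and 100% = tracer peptide lacking Bcl-B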
Details: GST-Bcl-B / FITC-TR3 peptide fluorescence polarization; stronger effect = higher value; compound at 3.75 mg/L

UniProt Q9HD36, sequence (Q9HD36 whole entry, looked up): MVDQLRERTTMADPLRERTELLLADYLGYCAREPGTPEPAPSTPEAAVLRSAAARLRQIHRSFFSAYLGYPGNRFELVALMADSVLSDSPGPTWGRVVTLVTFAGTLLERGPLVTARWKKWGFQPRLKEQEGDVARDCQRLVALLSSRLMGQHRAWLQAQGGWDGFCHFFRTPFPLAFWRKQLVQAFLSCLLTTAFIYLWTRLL

SMILES | displacement [%]
CCOC(=O)Cc1csc(NC(=O)/C=C\c2ccccc2Cl)n1 | 5.2
Clc1cccc(OCCCCN2CCCC2)c1 | 5.2
O=C(NCc1ccco1)c1cc2nc(-c3ccccc3)cc(C(F)(F)F)n2n1 | 1.6
Nc1nc(-c2ccccc2)cc(N2CCOCC2)n1 | -10
Cc1ccc(NN2C(=O)c3cccc4cccc(c34)C2=O)cc1 | -11.5
COc1ccc2c(c1)c(C1N3CC4(C)CN1CC(C)(C3)C4=O)c(C)n2C (configuration not stated) | 4
O=C(NCC1CC2CC1C1CC21)C1C2C3C4CC5C3C5C4C12 (configuration not stated) | 3.2
COc1ccc(NC(=O)C/C(C)=N/NC(=O)c2cnccn2)cc1 | -21.6
Cc1cc(C)cc(N2C(=O)NC(=O)/C(=C\c3ccc(Cl)cc3)C2=O)c1 | 16.4
CCCOC(=O)c1ccc(NC(=O)c2cc(Br)ccc2OC)cc1 | -6.7
Cc1cccc(NC(=O)C2C(c3ccccc3)C=CC(c3ccccc3)C2C(=O)O)c1C (configuration not stated) | -8.1
CCOc1ccc(N2C(=O)C3C(C(=O)OC)=NN(C(C)=O)C3C2=O)cc1 (configuration not stated) | 21.6
COc1ccc(/C=N/n2cnc3sc4c(c3c2=O)CCCC4)cc1OC | 5
C(=NN1CCN(c2ccccn2)CC1)c1ccc(OCc2ccccc2)cc1 | -5.9
COc1ccc(-c2cc(C(=O)Nc3c(C)cccc3C)c3ccccc3n2)c(OC)c1 | -2.3
CN(C)CCN1C(=O)C(=O)/C(=C(/O)c2ccccc2)C1c1ccc(Cl)cc1Cl (configuration not stated) | 4.9
COc1ccccc1N(CC(=O)NC(C)(C)C)S(=O)(=O)c1ccccc1 | 47.1
CCOC(=O)c1c(-c2ccc(OC)cc2)csc1NC(=O)c1cccc([N+](=O)[O-])c1 | 12.6
COc1cc(/C=c2\sc3nc4ccccc4n3c2=O)ccc1OC(=O)c1cccs1 | 15.4
CCc1ccccc1N(CC(=O)Nc1cccc(OC)c1)S(C)(=O)=O | 0
O=C(Nc1nnc(C23CC4CC(CC(C4)C2)C3)s1)c1ccccc1F | 14
O=C(c1cccc(OCc2ccccc2)c1)N1CCN(c2ccc([N+](=O)[O-])cc2)CC1 | 14.9

SMILES | displacement [%]
CCOC(=O)/C=C1\NC2(CCCCC2)Cc2cc(OC)c(OC)cc21 | -10.3
CC(=O)NS(=O)(=O)c1ccc(NC(=O)Nc2cccc(Cl)c2)cc1 | 11.1
CCCCOc1ccc(S(=O)(=O)N(Cc2ccccc2)Cc2ccccc2)cc1 | 0.7
Cc1ccc(S(=O)(=O)N(CCc2ccccc2)CC(=O)NCc2ccc(Cl)cc2)cc1 | 13.8
CSc1nnc2c(n1)OC(c1ccc(C)cc1)Nc1ccccc1-2 (configuration not stated) | 12.9
CCOc1ccccc1OCCCOc1ccccc1OCC | 19.9
C(=Nn1cnnc1)c1ccc2c(c1)OCO2 | -0.9
O=C(CCN1C(=O)S/C(=C\c2ccccc2)C1=O)N1CCCCC1 | -9.1
COc1ccc(S(=O)(=O)Nc2ncccc2Cl)cc1 | -6.8
COc1cc2ccccc2cc1C(=O)Nc1cccc(-c2nc3ncccc3o2)c1 | -0.8
CN(C)c1ccc(C2C=Cc3ccccc3N2C(=O)c2ccccc2)cc1 (configuration not stated) | 30.4
CC1=CC(C)(C)N(C(=O)c2ccc([N+](=O)[O-])cc2)c2ccccc21 | -1.7
COC(=O)C1=C(C)N(c2ccc(OC)cc2)C(=O)/C1=C\c1ccc(O)cc1 | 11.4
COC(=O)c1c(C)oc2cc(Br)c(OCC(=O)C(C)(C)C)cc12 | 7.5
COC(=O)c1c(C)oc2ccc(OCc3ccc([N+](=O)[O-])cc3)cc12 | 11.2
CN1CCN(/N=C/c2c3ccccc3cc3ccccc23)CC1 | -3.8
Cc1ccc(NC(=O)COc2ccccc2C)c(Br)c1 | -0.9
O=C(c1nn2c(C(F)(F)F)cc(-c3ccc(Br)cc3)nc2c1Cl)N1CCOCC1 | 11.9
CC1(C)NN(c2ccccc2)C(=S)N1c1ccccc1 | 9.6
NS(=O)(=O)c1cccc(NC(=O)c2cccs2)c1 | 1.4
Cc1c(NC(=O)c2cccc(OCc3ccccc3)c2)cccc1-c1nc2ccccc2o1 | 23.3
Cc1ccccc1NC(=O)C(=O)NCCN1CCNCC1 | 12.9

SMILES | displacement [%]
CN1CCN(c2nc(-c3ccc(Cl)cc3)nc3ccccc23)CC1 | 3.6
Cc1c(N2C(=O)/C(=C/c3cccs3)SC2=S)c(=O)n(-c2ccccc2)n1C | 8.6
CCOC(=O)C1CCN(C(=O)c2cc(C(=O)OC)cc([N+](=O)[O-])c2)CC1 | 5.2
Cc1ccc(S(=O)(=O)Nc2c(-c3ccccc3)c3cc(Br)ccc3[nH]c2=O)cc1 | -18.1
O=[N+]([O-])c1ccc2nc(Sc3nc4ccccc4s3)sc2c1 | 16.3
COC(=O)C1(S(=O)(=O)c2ccc(Br)cc2)CCCC1 | -0.3
Cc1ccc(C(=O)Nc2ccc(S(=O)(=O)N3CCc4ccccc43)cc2)cc1 | 1.6
CCOc1ccc(C(=O)Nc2ccc([N+](=O)[O-])cc2OC)cc1Br | -2
COc1ccc2nc(NC(=O)COC(=O)C(CCSC)NC(=O)c3ccccc3)sc2c1 (configuration not stated) | 7.7
O=C(Nc1ccc(Br)cc1C(=O)O)c1cc([N+](=O)[O-])cc([N+](=O)[O-])c1 | 0.8
O=C(NCc1ccccn1)c1cccs1 | -5.1
Cc1cccc(OCCOc2ccc(/C=N/n3cnnc3)cc2)c1 | -5.1
O=C(Nc1ccc(O)cc1)c1ccc(-c2ccccc2)cc1 | 0.7
Cc1nc2ccccn2c1C(=O)NC(C)c1ccccc1 (configuration not stated) | -0.7
CCC(=O)Oc1cc(OC(=O)CC)c2c(C)cc(=O)oc2c1 | -15.9
CN(C)c1ccc(C2/C(=C(\O)c3ccc(Cl)cc3)C(=O)C(=O)N2c2cccnc2)cc1 (configuration not stated) | -40.1
CCOc1ccccc1NC(=O)c1c(NC(=O)c2cccs2)sc2c1CCCC2 | -1.8
COc1ccc(-c2cc(-c3ccc(C)cc3)nc(N3CCCC3)n2)cc1 | -2.2
CC(C)N(Cc1c(O)ccc2c(=O)c(-c3ccc(Cl)cc3)coc12)C(C)C | -10.8
Cc1ccc(-n2c(O)c(C=NC3CCCCC3)c3ccccc3c2=O)cc1 | -2.3
CC(=O)Nc1ccc(NC(=S)NC(NC(=O)c2cccc([N+](=O)[O-])c2)C(Cl)(Cl)Cl)cc1 (configuration not stated) | 7.6
NNC(=O)Cn1c(-c2ccccn2)nc2ccccc21 | 4.7

SMILES | displacement [%]
N#C/C(=N\Nc1ccccc1)c1nc(-c2ccc(F)cc2)cs1 | 127
O=C1NC(=S)S/C1=C/c1ccc(-c2ccccc2)o1 | 2.4
CCC1(C)CC(CCNCc2ccc(OC)c(OC)c2)(c2ccc(F)cc2)CCO1 (configuration not stated) | 3.3
C/C(=N\NC(=O)C1(C)CC1(Br)Br)c1ccc([N+](=O)[O-])cc1 (configuration not stated) | -6.4
NC(=O)c1c(NC(=O)Nc2ccc(Cl)cc2)sc2c1CCCC2 | 0.8
Cc1oc2ccc(OCc3ccc([N+](=O)[O-])cc3)cc2c1C(=O)OC(C)C | 13.2
O=C(Nc1cccnc1)c1sc2cc(F)ccc2c1Cl | 7.8
C=CCN1C(=O)/C(=C/c2cc(I)cc(I)c2OC)SC1=S | 8.4
CCCCOc1ccc(C(C)=O)cc1CSc1nc(O)cc(=O)[nH]1 | -4.6
CC(C)OC1=C(Cl)C(=O)c2ccccc2C1=O | 10.6
Cc1ccc(S(=O)(=O)NCc2ccco2)cc1C | 15
Cc1ccc(NC(=O)C(=O)NC2CC2)c(C)c1 | 2.4
COC(=O)C1=C(C)N=c2s/c(=C/c3ccccc3OC(C)=O)c(=O)n2C1c1ccc(OC(C)=O)cc1 (configuration not stated) | 6.8
O=C1N=c2ccc(Br)cc2=C1c1sc(=S)n(NC(=O)c2ccccc2[N+](=O)[O-])c1O | -2.8
COc1ccc(/C=C2\C(=O)NC(=O)N(c3ccc(Cl)cc3)C2=O)cc1C(=O)O | -0.4
COc1ccc(C(=O)Nc2cc(C(F)(F)F)ccc2Cl)cc1OC | 10.5
Cc1cccc(C2OC3(C(=O)c4ccccc4C3=O)C3C(=O)N(c4ccccc4Br)C(=O)C23)c1 (configuration not stated) | 11.4
CC(C)CC(=O)Nc1ccc(S(N)(=O)=O)cc1 | -2.9
CS(=O)(=O)N(CC(=O)Nc1ccc(Cl)cc1)c1cccc(C(F)(F)F)c1 | 8.1
Cc1ccc(C(=O)Nc2cccc(NC(=O)c3ccco3)c2)cc1C | 60.4
COc1cc([N+](=O)[O-])cc2c1N=C(c1ccc(Cl)cc1Cl)NO2 | 2
CC(C)c1ccc(C2/C(=C(\O)c3ccccc3)C(=O)C(=O)N2CCN(C)C)cc1 (configuration not stated) | 7.2

SMILES | displacement [%]
O=C1ON=C(c2ccccc2)/C1=C/c1ccc(Br)s1 | 70.8
CCOc1ccc(N=C2NC(=O)/C(=C/c3ccc(I)o3)S2)cc1 | -28.4
COc1ccc2c(c1)CCC1C2=NN(/C(C)=C/C(C)=O)C1c1ccc(N(C)C)cc1 (configuration not stated) | 1.8
COc1nc(NS(=O)(=O)c2ccc(NC(C)=O)cc2)nc(C)c1Cl | -7.4
Cc1ccc2nc(NC(=S)NC(=O)c3ccco3)sc2c1 | 11.2
CCc1c(C)nc2[nH]nc(-c3ccccc3Cl)n2c1=O | -9.1
CCOC(=O)C1=C(C)N=c2s/c(=C\C=C\c3ccccc3)c(=O)n2C1c1ccc(OC(C)=O)cc1 (configuration not stated) | 16.9
COc1ccccc1/C=C/C(=O)c1c(-c2ccccc2)c2cc(Br)ccc2[nH]c1=O | -20.8
O=C(c1ccc(Br)o1)N1CCN(C(c2ccccc2)c2ccccc2)CC1 | 6.9
CN1C2=CC=CC=CC2=[N+](C)C12C=CC(=[N+]([O-])[O-])C=C2[N+](=O)[O-] (configuration not stated) | 14.7
Cc1cc(/C=C2\C(=O)NC(=S)N(c3cccc(Cl)c3)C2=O)c(C)n1C | 9.7
Cc1ccc(/C=N/NC(=O)c2ccccc2C)cc1 | 7.8
C=CCN1C(=O)/C(=C\c2ccc(OS(=O)(=O)c3ccccc3)c(OCC)c2)SC1=S | -12.6
CCc1nnc2c3c4c(sc3nc(C)n12)CCC4 | 7.5
N#C/C(=C\c1ccc(I)o1)c1ccccc1 | -34
O=[N+]([O-])c1ccc(-c2nc(Cc3ccccc3)no2)cc1 | -7.2
Clc1ccccc1CN1CCN(N=Cc2cccc(Br)c2)CC1 | -6.7
CC(C)CC(=O)N1CCN(Cc2cccc(C(F)(F)F)c2)CC1 | -8
O=C(/C=C/c1ccc2c(c1)OCO2)NCC1CCCO1 (configuration not stated) | -11
